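Each compound was tested at five concentrations against cells in 96-well plates for 48 hours. GI50: concentration for 50% inhibition of growth.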 Calls of active or inactive are those of the source. Cut-off read from the data, not from the text of the source: active = GI50 up to about 1.1 µM and inactive = higher.
These compounds were tested on NCI-H322M (assay: growth of human tumour cells (NCI), 48 h).
In the case of Cc1cc(S(=O)(=O)Nc2nc3ccccc3[nH]2)c(S)cc1Cl, the GI50 is reported as inactive: 55.2 µM. N#CC1=C(N)Oc2c(ccc3cccnc23)C1c1ccccc1 (stereo unspecified) was tested, and the GI50 was inactive: 4.43 µM. For COC(=O)c1ccccc1CC1Cc2cc3c(cc2C1=O)CCC3 (stereo unspecified), the GI50 was inactive: > 73.3 µM. For C/C(=N\Nc1ccc2ccccc2n1)c1ccccc1O, the GI50 was inactive: > 100 µM. With CC(C)Oc1c(O)c2c3c(oc(=O)n3C=CC2c2ccccc2)c1OC(C)C (stereo unspecified) the GI50 was inactive: 45.8 µM. With N#CC1Sc2ccccc2-n2cccc21 (stereo unspecified) the GI50 was inactive: > 100 µM. In the case of CC(=O)/C(=C\n1c(=S)[nH]c2ccc([N+](=O)[O-])cc21)C(=O)Nc1ccccc1C, the GI50 is reported as inactive: > 100 µM. For CC(C(O)c1ccccc1)N(C)/N=N/c1nc2c([nH]1)c(=O)n(C)c(=O)n2C (stereo unspecified), the GI50 was inactive: > 100 µM. COc1ccc(CC/N=C2\OCc3ccccc32)cc1OC was tested, and the GI50 was inactive: 61.9 µM. With Cn1c(=O)c2c(nc3sc4ccccc4c(=O)n32)n(C)c1=O the GI50 was inactive: > 100 µM. For CCOC(=O)[C@H](C)OC(=O)[C@@](C)(NC(=O)c1ccccc1C(=O)OC)[C@@H]1NC=C(C(=O)OC)CS1, the GI50 was inactive: > 100 µM. With COc1ccc2nc3cc([N+](=O)[O-])ccc3c(Nc3ccc(S(=O)(=O)N=C(N)N)cc3)c2c1 the GI50 was inactive: 22.9 µM. For C=CCOC1(CC=C)C(=O)OC2C(O)COC21O (stereo unspecified), the GI50 was inactive: > 100 µM. With COC(=O)C(C(=O)C(=O)Nc1ccc(C)cc1)c1nc2ccc([N+](=O)[O-])cc2nc1O (stereo unspecified) the GI50 was inactive: > 100 µM. COC(=O)/C=C/c1cc(OC)c2oc(-c3ccc(OC)c(OC)c3)c(C(=O)OC)c2c1 was tested, and the GI50 was inactive: > 100 µM. NCCOCC(N)C(=O)O (stereo unspecified) was tested, and the GI50 was inactive: > 100 µM. For CC(=O)N1CCn2c1nc1cc(Cl)ccc12, the GI50 was inactive: 23.3 µM. N#C/C(=C\c1cccc(Br)c1)c1nc2ccccc2c(=O)[nH]1 was tested, and the GI50 was inactive: > 100 µM. With CC1(C)N=C(N)N=C(N)N1c1cccc(C(=O)Nc2ccc(S(=O)(=O)F)cc2)c1 the GI50 was inactive: > 100 µM. For CNc1ccc([N+](=O)[O-])c2c(NCCCN(C)C)ccnc12, the GI50 was inactive: > 100 µM. With O=C(O)c1ccc(Nc2cnc3cc(C(F)(F)F)ccc3n2)cc1 the GI50 was inactive: 57 µM. Cc1ccc2c(c1)C1(C)OC(C=CC1=O)O2 (stereo unspecified) was tested, and the GI50 was inactive: 5.16 µM. With CN(C)CCCn1cnc2ncccc2c1=O the GI50 was inactive: > 100 µM. With Nc1ccn(C2CC(O)C(COP(=O)(S)OC3CC(n4ccc(N)nc4=O)OC3CO)O2)c(=O)n1 (stereo unspecified) the GI50 was inactive: > 100 µM. CC1OC(OCC2OC(Oc3ccc(C4CC(=O)c5c(O)cc(O)cc5O4)cc3O)C(O)C(O)C2O)C(O)C(O)C1O (stereo unspecified) was tested, and the GI50 was inactive: > 100 µM. In the case of COc1cc(C(C)c2cc3c(cc2OCCNC(=O)COc2cc4c(cc2C(C)c2cc(OC)c(OC)c(OC)c2)OCO4)OCO3)cc(OC)c1OC (stereo unspecified), the GI50 is reported as inactive: > 100 µM. For COc1ccc(C2C(=O)c3c(OC)cc(OC)cc3OC2c2cccnc2)cc1 (stereo unspecified), the GI50 was inactive: > 100 µM. O=c1c2sc3ccccc3sc=2c(=O)c2c(Cl)c(Cl)c(Cl)c(Cl)c12 was tested, and the GI50 was inactive: > 100 µM. For CN(C)c1ccc2c(c1)oc(=O)c1ccccc12, the GI50 was inactive: 14.6 µM. In the case of Cc1c(C)c(C)c(-n2c(=O)n(C)c(=O)n2-c2cc(C(C)(C)C)cc(C(C)(C)C)c2O)c(C)c1C, the GI50 is reported as inactive: 13.4 µM. With COc1ccc(C2=CC(C(C)=C(C(N)=O)C(N)=O)C=C(c3ccc(Br)cc3)C2)c(OC)c1 (stereo unspecified) the GI50 was inactive: > 100 µM. COc1ccc(-n2c(N)c(C#N)c(C#N)c2-c2cccc([N+](=O)[O-])c2)cc1 was tested, and the GI50 was inactive: > 100 µM. With C=C(C)[C@H]1C2=CC(C(=O)OC)=C(C[C@H](C(=C)C)[C@@H](O)[C@@H](O)C3=C[C@H]1OC3=O)O2 the GI50 was inactive: > 100 µM. With CC(C)(C)c1cc(C(C)(C)C)c2c(c1O)OC(=O)CS2 the GI50 was inactive: 14.3 µM. For CC(C)(C)OC(=O)N[C@@H](Cc1ccccc1)C(=O)N1CC[C@@H](C(=O)N2[C@H]3CC4CC[C@@]3(CS2(=O)=O)C4(C)C)N1, the GI50 was inactive: > 100 µM. CC(C)(C)c1cc(CCCCCCCC2(CCCCCCCc3cc(C(C)(C)C)cc(C(C)(C)C)c3)OC(COCCOCCCCCC#N)C(COCCOCCCCCC#N)O2)cc(C(C)(C)C)c1 (stereo unspecified) was tested, and the GI50 was inactive: > 100 µM. In the case of CCOC(=O)Oc1ccc2c(c1)c(=O)c1c(NCCCN(CC)CC)ccc3nnn2c31, the GI50 is reported as active: 0.723 µM. For O=C(c1cc(Cl)ccc1Cl)N1CCN(c2ccc(Cl)c(Cl)c2)CC1, the GI50 was inactive: 52.7 µM. For CCC1NC(/N=N/c2ccc([N+](=O)[O-])cc2)(P(=O)(OC(C)C)OC(C)C)OC1=O (stereo unspecified), the GI50 was inactive: > 100 µM. In the case of CCOC(=O)c1c(NC(=O)c2ccc(OC)cc2)sc2c1CCCC2, the GI50 is reported as inactive: > 100 µM. With COc1ccc(-c2c3ccccc3c(-c3ccc(OCCBr)cc3)c3ccccc23)cc1 the GI50 was inactive: > 100 µM.

From ChEMBL document CHEMBL1201862, “PubChem BioAssay data set” (2004)
